From PubChem BioAssay AID488969 (Vanderbilt High Throughput Screening Facility, 2010)
In all, about 110,000 compounds were measured (“z-score”: median about -0.1, highest 2% from about 2 on). Some of the results follow.

These compounds were tested against Metabotropic glutamate receptor 8 (Rattus norvegicus) (UniProt P70579) (assay: mGluR8 Gi/Go-coupled signaling modulation – cell-based, rat, thallium flux, HTS, primary screen (AID 488969)). Conditions: HEK293 rat mGluR8, GIRK (G protein-gated inwardly rectifying potassium channel) thallium flux, FluoZin2; at 10 µM; stronger effect = higher value; submaximal glutamate (EC20) added with thallium.
UniProt P70579, sequence (P70579 whole entry, looked up): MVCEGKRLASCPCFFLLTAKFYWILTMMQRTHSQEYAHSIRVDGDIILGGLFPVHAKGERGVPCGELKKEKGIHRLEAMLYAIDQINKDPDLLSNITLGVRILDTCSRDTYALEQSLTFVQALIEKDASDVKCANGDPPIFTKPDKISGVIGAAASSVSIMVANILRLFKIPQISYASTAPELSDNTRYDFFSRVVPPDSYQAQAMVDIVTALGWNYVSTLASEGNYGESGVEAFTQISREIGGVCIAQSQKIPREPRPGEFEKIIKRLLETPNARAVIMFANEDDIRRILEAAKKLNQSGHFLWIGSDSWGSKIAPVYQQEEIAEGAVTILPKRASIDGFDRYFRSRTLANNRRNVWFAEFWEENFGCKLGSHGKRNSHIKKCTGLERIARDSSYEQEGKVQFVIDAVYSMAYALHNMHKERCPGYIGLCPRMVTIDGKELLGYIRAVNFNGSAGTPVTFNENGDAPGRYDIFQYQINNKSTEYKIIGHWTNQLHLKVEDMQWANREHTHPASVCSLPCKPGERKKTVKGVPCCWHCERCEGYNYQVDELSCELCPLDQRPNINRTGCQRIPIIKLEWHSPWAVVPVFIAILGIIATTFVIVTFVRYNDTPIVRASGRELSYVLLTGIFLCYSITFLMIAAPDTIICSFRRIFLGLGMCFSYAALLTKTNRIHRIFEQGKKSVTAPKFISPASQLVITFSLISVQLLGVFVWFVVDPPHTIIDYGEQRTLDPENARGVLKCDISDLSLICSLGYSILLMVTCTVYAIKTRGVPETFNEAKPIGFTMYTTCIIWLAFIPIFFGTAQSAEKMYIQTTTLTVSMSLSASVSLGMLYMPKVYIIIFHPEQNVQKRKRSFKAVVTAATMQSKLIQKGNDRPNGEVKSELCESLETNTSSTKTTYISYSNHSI

SMILES | z-score
O=C(N/N=C/c1ccco1)c1cc(-c2cccc3ccccc23)n[nH]1 | -0.696
CCCOc1ccc(C2C(C(=O)OC)=CN(CCOC)C=C2C(=O)OC)cc1 | -0.356
CCC(C(=O)NCc1ccco1)N(Cc1cccs1)C(=O)CNS(=O)(=O)c1ccccc1 (stereo not drawn) | -0.319
Cc1ccc(NC(=O)NNS(=O)(=O)c2ccc(Br)cc2)cc1 | -0.276
COc1cc(C(=O)Nc2ccc3c(c2)C(=O)c2ccccc2C3=O)cc(OC)c1OC | -0.165
O=C(NC(=S)Nc1ncc(Br)cc1Br)c1cncc(Br)c1 | 0.278
Cc1ccsc1/C=N/Nc1ncc(Cl)cc1Cl | -0.179
CCN1CCN(C(=O)Cn2ncc3c2-c2ccccc2OC3)CC1 | 0.0205
O=C(CSc1nc(-c2ccc(F)cc2)cc(C(F)(F)F)n1)NCc1ccco1 | -0.312
C=CCNC(=O)C1CCN(c2nc(C)cc(-c3ccccc3)n2)CC1 | -1.08
Cc1ccccc1N(C(=O)c1cccs1)c1nc2ccccc2s1 | -0.386
CCOC(=O)CSc1nnc(-c2ccoc2C)n1-c1ccc(OCC)cc1 | -0.921
Cc1cc(C)c(C(=O)COC(=O)c2cccc(S(=O)(=O)NCc3ccccc3)c2)cc1C | -0.153
CCOc1c2ccc(C(=O)N[C@H](C)C3CCCCC3)cc2nn1CC | -0.122
COc1cccc(C(=O)O/N=C(\N)c2ccncc2)c1OC | -0.365
O=C(c1ccc(N2C(=O)C3CCCCC3C2=O)cc1)N1CCCCC1 (stereo not drawn) | -0.0104
CC1CC(C)CN(CCCNC(=O)C2CCN(S(=O)(=O)N3CCCCC3)CC2)C1 (stereo not drawn) | 1.06
COc1ccc(CCn2c(-n3nc(C)cc3C)nc3c2c(=O)[nH]c(=O)n3C)cc1 | -0.107
C=CCc1cccc(CNc2nc3ccccc3n2CCN2CCOCC2)c1O | 0.127
CN(C)c1nc(SCCOC(=O)Nc2ccccc2)nc(N(C)C)n1 | -0.557
COc1ccc(S(=O)(=O)Cc2ccc(C(=O)N3CCC(C(N)=O)CC3)o2)cc1 | -0.374
Cc1c(C)n(C(=O)CN2CCC(C(N)=O)CC2)c2ccccc12 | 0.0486
COc1cc(NC(=O)CN2CCCCC2C)c(C)cc1[N+](=O)[O-] (stereo not drawn) | -0.225

SMILES | z-score
O=C(ON=C1CCN(S(=O)(=O)c2ccccc2)CC1)c1ccc(F)cc1 | 0.0606
O=C(CNC(=S)NC(=O)c1ccc(F)cc1)c1ccccc1 | -0.0791
CC(C)(C)c1ccc(OCC(=O)NNC(=O)CCc2ccccc2)cc1 | 0.639
COc1ccc(C(=O)/C=C/Nc2cc(C)on2)c(OC)c1 | -0.218
CCOc1ccc(OCCNC2CCCC2)cc1 | 0.0455
O=c1c2ccccc2nc(-c2ccco2)n1Cc1ccccc1 | -0.53
O=S(=O)(c1cccc(C(F)(F)F)c1)N1CCC(c2cc(-c3cccc4ccccc34)n[nH]2)CC1 | 1.58
O=C(Nc1ccccc1C(=O)NCc1ccc(Cl)cc1)c1ccco1 | -0.699
Cc1nonc1OC(C)CNc1ccc([N+](=O)[O-])cc1 (stereo not drawn) | 0.228
O=C(c1ccco1)N1CCN(C(c2ccccn2)c2nnnn2C2CCCC2)CC1 (stereo not drawn) | -0.00379
O=C(Nc1ccc2c(c1)OCO2)NC1CCN(Cc2ccccc2)CC1 | 0.106
O=C(Cc1ccc(F)cc1)NCCc1ccc(F)cc1 | 0.128
O=C1c2cccc3cccc(c23)C(=O)N1/N=C/c1ccc(O)cc1O | -0.296
COc1cc(C2C(C(=O)c3ccc(C)o3)=C(O)C(=O)N2c2cc(C)on2)cc(Br)c1O (stereo not drawn) | -0.257
O=C(CN1C(=O)C2C3C=CC(C3)C2C1=O)NCCC1=CCCCC1 (stereo not drawn) | 0.852
O=C(COn1nnc2ccc(Cl)cc21)NCc1ccccc1 | 0.157
O=c1c2ccccc2nc(COc2ccccc2)n1/N=C/c1ccco1 | -0.24
O=c1c2ccccc2c(C=NCCc2ccccc2)c(O)n1Cc1ccccc1 | -0.112
c1ccc2nc(-c3ccncc3)ccc2c1 | -0.0132
O=C(Nc1ccccn1)C1(c2cccs2)CCOCC1 | -1.95
CC1(C)CC(CCC(=O)Nc2ccccc2Cl)C(=O)O1 (stereo not drawn) | 0.106
COc1ccc(NC(=S)N2CCC(c3nc4ccccc4[nH]3)CC2)c(OC)c1 | -0.0654
COc1cc(C2=Nc3c(c(C)nn3-c3ccccc3)P(=O)(N3CCOCC3)O2)cc(OC)c1OC (stereo not drawn) | 0.798

SMILES | z-score
c1ccc(Cn2nnnc2CN2CCCC2)cc1 | 0.234
COc1ccc(Oc2c(Cl)cnn(-c3ccccc3)c2=O)cc1 | -0.58
CCCCOc1ccc(OCCCC)c2c1NC1(N2)C(=O)N(C(C)=O)c2ccccc21 | 0.444
O=C(Nc1nccs1)c1cccc(S(=O)(=O)N2CCOCC2)c1 | 0.288
COc1ccc(C(=O)NC2(C(F)(F)F)NC(=O)N(CCCc3ccccc3)C2=O)c(OC)c1OC (stereo not drawn) | -0.277
CC(/C=C/c1ccc2c(c1)OCO2)=N/NC(=O)CNc1ccc(C)cc1 | -0.178
COCCn1nnnc1C(c1cc2ccc(OC)cc2[nH]c1=O)N1CCN(C2CCCCC2)CC1 (stereo not drawn) | -0.119
Cc1cc2c(=O)n(C)c(SCC(=O)c3cc4ccccc4o3)nc2s1 | 0.166
COc1ccc(-c2[nH]nc3c2C(c2ccccc2OC(=O)N2CCOCC2)C(C#N)=C(N)O3)cc1 (stereo not drawn) | -0.234
Cc1ccc(-c2noc(CSc3nnc(Cc4cccs4)n3-c3ccccc3)n2)cc1 | 0.818
CCOc1ccc(NC(=O)c2ccc(F)c(S(=O)(=O)N3CCN(c4ccccn4)CC3)c2)cc1 | 0.727
O=C(CC(c1ccccc1)c1ccccc1)Nc1ccc2c(c1)OCCO2 | -0.863
COc1cccc(Sc2cc(N3CCOCC3)nc(-c3ccccc3)n2)c1 | 0.548
CCN1CCc2c(sc(NC(=O)c3ccc(S(=O)(=O)N4CCOCC4)cc3)c2C(=O)OC)C1 | -0.0252
O=C(O)C1NCCc2ccccc21 (stereo not drawn) | 0.415
O=C(C1CCC(CNc2nc(=S)[nH]c3ccccc23)CC1)N1CCN(c2ccccn2)CC1 (stereo not drawn) | -0.654
CCOC(=O)C1=C(c2ccccc2)NC(=S)NC1c1cccc([N+](=O)[O-])c1 (stereo not drawn) | -0.203
CC(=O)c1ccc(NC(=O)C2Cc3ccccc3CN2C(=O)c2ccccc2)cc1 (stereo not drawn) | -0.25
COc1ccc(C(=O)N2CCC(C(=O)Nc3ccc4c(c3)OCO4)CC2)cc1 | 0.0586
CCOC(=O)c1ccc2c(c1)nc(COc1ccc(OC)cc1)n2CC | -0.233
Cc1nc(NCCN2CCOCC2)c2nnn(Cc3ccccc3Cl)c2n1 | -0.7
CC(=O)c1sc2nc(SCC(=O)N3CCCCC3)[nH]c(=O)c2c1C | -0.237
